These results are taken from the supplement of paper PMC4604168 (melanoma cell lines).

Holding throughout (experiment): cell count relative to DMSO control; melanoma cells; higher = more viable cells
What all share (details): library dose: low library concentration; 72 h

Test [1] has as its system WM115.
Test [2] relates to WM1716.
Test [3] relates to WM1745.
Test [4] deals with WM3526.
The subject of test [5] is WM3619.
Test [6] has as its system WM451Lu.

Each structure is given as a SMILES string. The list shows a part of the results. Most values come without repeats; read them as rough.
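Further: cell number obtained by counting DAPI-stained nuclei in high-throughput microscope images with image analysis software, screen run in 1,536-well plates.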

On to `CC[C@]1(O)C[C@H]2CN(CCc3c([nH]c4ccccc34)[C@@](C(=O)OC)(c3cc4c(cc3OC)N(C=O)[C@H]3[C@@](O)(C(=O)OC)[C@H](OC(C)=O)[C@]5(CC)C=CCN6CC[C@]43[C@@H]65)C2)C1` [vincristine] + Cn1cc(/C=C2\C(=O)Nc3cccnc32)c2ccccc21 [GW441756] (first compound 0.0001 µM, partner dose 0.4 µM), for which the cell count in test [1] worked out at 56.6%; in test [2], 56.5%; in test [3] it was 89.5%; in test [4] it was 69.3%; in test [5] it was 93.9%; in test [6], 54.4%.

As for `Cc1cc(Nc2cc(N3CCN(C)CC3)nc(Sc3ccc(NC(=O)C4CC4)cc3)n2)n[nH]1` [Tozasertib] + Cn1c(=O)n(-c2ccc(C(C)(C)C#N)cc2)c2c3cc(-c4cnc5ccccc5c4)ccc3ncc21 [NVP-BEZ235] (first compound 0.006 µM, partner dose 0.004 µM), the cell count in test [1] is 99%; in test [2] it was 89.5%; in test [3], 94.9%; in test [4] it was 87%; in test [5] it was 92.3%; in test [6], 113%.

Turning to `Cc1cc(Nc2cc(N3CCN(C)CC3)nc(Sc3ccc(NC(=O)C4CC4)cc3)n2)n[nH]1` [Tozasertib] + CNC(=O)c1cc(Oc2ccc(NC(=O)Nc3ccc(Cl)c(C(F)(F)F)c3)cc2)ccn1 [sorafenib] (first compound 0.006 µM, partner dose 0.4 µM), the cell count in test [1] is 90.2%; in test [2], 80.3%; in test [3], 87.9%; in test [4], 106%; in test [5], 78.4%; in test [6], 107%.

Consider `Cc1cc(Nc2cc(N3CCN(C)CC3)nc(Sc3ccc(NC(=O)C4CC4)cc3)n2)n[nH]1` [Tozasertib] + O=C(O)c1ccc2c(c1)nc(Nc1cccc(Cl)c1)c1ccncc12 [CX4945] (first compound 0.006 µM, partner dose 0.4 µM), for which the cell count worked out at 101% in test [1]; 87.6% in test [2]; 89.2% in test [3]; 81.1% in test [4]; 86.9% in test [5]; 101% in test [6].

On to `CC[C@]1(O)C[C@H]2CN(CCc3c([nH]c4ccccc34)[C@@](C(=O)OC)(c3cc4c(cc3OC)N(C=O)[C@H]3[C@@](O)(C(=O)OC)[C@H](OC(C)=O)[C@]5(CC)C=CCN6CC[C@]43[C@@H]65)C2)C1` [vincristine] + Nc1cccc2c1CN(C1CCC(=O)NC1=O)C2=O [lenalidomide] (first compound 0.0001 µM, partner dose 1 µM), for which the cell count in test [1] came out at 52.6%; in test [2], 43.3%; in test [3] it was 82.9%; in test [4], 71.4%; in test [5] it was 56.7%; in test [6], 63.5%.

For the molecule `CC[C@]1(O)C[C@H]2CN(CCc3c([nH]c4ccccc34)[C@@](C(=O)OC)(c3cc4c(cc3OC)N(C=O)[C@H]3[C@@](O)(C(=O)OC)[C@H](OC(C)=O)[C@]5(CC)C=CCN6CC[C@]43[C@@H]65)C2)C1` [vincristine] + COc1ccc(-c2ccc3c(N4CCOCC4)nc(N4C[C@@H](C)O[C@@H](C)C4)nc3n2)cc1CO [KU0063794] (first compound 0.0001 µM, partner dose 0.02 µM), the cell count turned out to be 58.7% in test [1]; 48.5% in test [2]; 94.9% in test [3]; 73.8% in test [4]; 75.3% in test [5]; 65.1% in test [6].

For the molecule `CC[C@]1(O)C[C@H]2CN(CCc3c([nH]c4ccccc34)[C@@](C(=O)OC)(c3cc4c(cc3OC)N(C=O)[C@H]3[C@@](O)(C(=O)OC)[C@H](OC(C)=O)[C@]5(CC)C=CCN6CC[C@]43[C@@H]65)C2)C1` [vincristine] + O=C(Nc1cccc(Cl)c1)Nc1ncc(CCNc2ncnc3ccsc23)s1 [SNS314] (first compound 0.0001 µM, partner dose 0.0008 µM), the cell count in test [1] was 41.7%; in test [2], 50.3%; in test [3] it was 80.8%; in test [4], 68.9%; in test [5], 60.8%; in test [6] it was 71.4%.

As to `Cc1cc(Nc2cc(N3CCN(C)CC3)nc(Sc3ccc(NC(=O)C4CC4)cc3)n2)n[nH]1` [Tozasertib] + O=c1[nH]nc(Sc2ncc([N+](=O)[O-])s2)n1-c1ccc2c(c1)OCCO2 [BI78D3] (first compound 0.006 µM, partner dose 0.2 µM), the cell count was 95.6% in test [1]; 85.9% in test [2]; 95.5% in test [3]; 104% in test [4]; 92.5% in test [5]; 103% in test [6].

`Cc1cc(Nc2cc(N3CCN(C)CC3)nc(Sc3ccc(NC(=O)C4CC4)cc3)n2)n[nH]1` [Tozasertib] + CC1(C)NC(=O)N(c2ccc([N+](=O)[O-])c(C(F)(F)F)c2)C1=O [nilutamide] (first compound 0.006 µM, partner dose 1 µM): the cell count in test [1] was determined as 98.8%; in test [2], 83.9%; in test [3], 72.2%; in test [4], 85.7%; in test [5], 86.3%; in test [6], 91.6%.

Regarding `CC[C@]1(O)C[C@H]2CN(CCc3c([nH]c4ccccc34)[C@@](C(=O)OC)(c3cc4c(cc3OC)N(C=O)[C@H]3[C@@](O)(C(=O)OC)[C@H](OC(C)=O)[C@]5(CC)C=CCN6CC[C@]43[C@@H]65)C2)C1` [vincristine] + CNC(=O)c1cc(Oc2ccc(NC(=O)Nc3ccc(Cl)c(C(F)(F)F)c3)cc2)ccn1 [sorafenib] (first compound 0.0001 µM, partner dose 0.4 µM), the cell count in test [1] was found to be 51.7%; in test [2] it was 38%; in test [3], 71.8%; in test [4], 57.2%; in test [5] it was 42.9%; in test [6], 58.2%.
